In a collection of fitness landscapes (doi:10.1016/j.celrep.2020.107928):
Whole data set: some 81,000 sequences, median “one-hybrid fitness for binding NBS DNA” near -0.1, cut for the highest 2% near 0.36. The list shows a part of the results.

B1: Caulobacter ParB omega fusion; a variant is named by its letters at X, in order, B8GW30 (parent)
chain: MESVVVGEPGMSEGRRGLGRGLSALLGEVDAAPAQAPGEQLGGSREAPIEILQRNPDQPRRTFREEDLEDLSNSIREKGVLQPILVRPSPDTAGEYQIVAGERAWRAAQRAGLKTVPIMVRELDDLAVLEIGIIENVQRADLNVLEEALSYKVLMEKFERTQENIAQTIGKSXSHVANXMRLLXLPDEVQSYLVSGELTAXHARAIAAAADPVALAKQIIEGGLSVRETEALARKAPNLSAGKSKGGRPPRVKDTDTQALESDLSSVLGLDVSIDHRGSTGTLTITYATLEQLDDLCNRLTRGI

Variants of: B1
Test: one-hybrid fitness for binding NBS DNA (the Noc-binding site; scaled: cognate 1, non-cognate 0); higher = stronger binding
Conditions: with NBS DNA site
Method in brief: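 In E. coli USO, a HIS3 reporter with its site placed 19 bp from the promoter was used to select Caulobacter ParB variants randomised at four specificity codons. Growth lasted 48 hours at 37°C on histidine-free M9 containing 0.1 mM IPTG and 5 mM 3-AT. Fitness was taken as the log change in variant-to-wild-type read ratio from Illumina sequencing of pre- and post-selection plasmids, rescaled between the non-cognate and cognate sites.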

Variant	one-hybrid fitness for binding NBS DNA
TYVF	≤ 0.2
SASM	≤ 0.2
YWDG	≤ 0.2
TAQW	≤ 0.2
VYPR	≤ 0.2
RRGM	0.237
LRTH	≤ 0.2
TVCY	≤ 0.2
MDSR	≤ 0.2
NIWG	≤ 0.2
CLLR	≤ 0.2
AHVG	≤ 0.2
QYGN	≤ 0.2
SGHL	≤ 0.2
QTNF	0.244
PSIW	≤ 0.2
TYNI	≤ 0.2
PPAK	≤ 0.2
NQGR	≤ 0.2
TTMY	≤ 0.2
MRRI	≤ 0.2
SAWT	≤ 0.2
YVKR	≤ 0.2
SALW	≤ 0.2
CMPT	≤ 0.2
HMGS	≤ 0.2

Variant	one-hybrid fitness for binding NBS DNA
SHDG	≤ 0.2
SPMR	≤ 0.2
QLWI	≤ 0.2
KIQC	≤ 0.2
RCRA	0.422
EAWR	≤ 0.2
MVSG	≤ 0.2
CLCS	≤ 0.2
CWYT	≤ 0.2
LCTT	≤ 0.2
ISQK	≤ 0.2
ANQV	≤ 0.2
PSYC	≤ 0.2
RTNP	≤ 0.2
ISNT	≤ 0.2
TYAP	≤ 0.2
NTTC	≤ 0.2
CSNS	≤ 0.2
PLWC	≤ 0.2
EDPE	≤ 0.2
PLTM	≤ 0.2
KIKL	≤ 0.2
RPPF	≤ 0.2
WESH	≤ 0.2
PYQC	≤ 0.2
VLQR	≤ 0.2

Variant	one-hybrid fitness for binding NBS DNA
CIHR	≤ 0.2
VMPT	≤ 0.2
TKML	≤ 0.2
GLLP	≤ 0.2
PQSE	≤ 0.2
VTMN	≤ 0.2
AHQR	≤ 0.2
VDYK	≤ 0.2
CCLT	≤ 0.2
EVPG	≤ 0.2
RINA	≤ 0.2
DACC	≤ 0.2
QAPN	≤ 0.2
DKYT	≤ 0.2
RQWS	≤ 0.2
AYNC	≤ 0.2
PNTI	≤ 0.2
EPLS	≤ 0.2
SGRG	≤ 0.2
KFRG	≤ 0.2
VFRC	≤ 0.2
ERER	≤ 0.2
YNTA	≤ 0.2
LPRR	≤ 0.2
ADRA	≤ 0.2
